# Data: paper PMC10668032
# Some of the results follow. At the low end of the ranking the order means little.
# Target: SIX1 homeodomain (reference allele) (UniProt Q15475)
# Test: universal protein binding microarray
# Settings: Universal all-10-mer PBM (8x60K, AMADID 030236), 300 nM GST-tagged protein, Alexa Fluor 488 anti-GST; buffer, salt, pH and temperature not stated; high values mean tight binding; most listed sequences are background and not binding sites; double strand, one strand shown
row,Sequence,binding signal [E-score]
1,TGGTAACA,-0.0685
2,AAATAGAT,0.236
3,CCAGGAGG,0.104
4,CCCGCTCC,-0.0512
5,TACATCGA,0.111
6,TCTGCGCA,-0.033
7,AGTGGGGG,-0.024
8,CGGTGCAA,0.0597
9,CGGTTATC,0.309
10,AACTTGGC,-0.177
11,CCGACGAC,-0.0111
12,TACCCACA,0.196
13,CAACTCTA,-0.0441
14,GAGCCAGA,-0.0265
15,CAATTGGC,-0.25
16,TCATTGCA,0.0262
17,ACCAACAC,0.0946
18,CAGCCCCG,-0.222
19,ACTTCAGC,-0.213
20,ATTACGTG,0.107
21,ATACATTA,0.223
22,AGGTGTAG,0.128

row,Sequence,binding signal [E-score]
1,ACTGCGAG,-0.0126
2,AACCAGAT,0.25
3,GATGCGCA,-0.0453
4,ATTAATAG,0.108
5,AATTGTGC,-0.12
6,CTAGGATA,0.356
7,ACGAAAGA,-0.179
8,AGAATCTC,0.0712
9,GATGAATC,-0.0298
10,CACAACTA,-0.0462
11,ATTCGTGG,-0.00769
12,ATGTTTCG,-0.103
13,AATACCTA,0.289
14,AGCTTTCC,-0.286
15,GATTCGGA,0.0449
16,AGAATACC,0.312
17,GGGTTACC,-0.078
18,AGTATCAG,0.46
19,ATGCGACA,0.0591
20,CCTGACCA,0.0126
21,CATGCGGG,-0.0794
22,AAGCCAAG,-0.366

row,Sequence,binding signal [E-score]
1,AAGATCCT,0.326
2,AGCCCAAC,-0.167
3,GAACGCTC,-0.315
4,ACATCGAC,-0.0677
5,ACCAGCGA,-0.0469
6,CGCGACCG,-0.0603
7,TCTGCAAA,-0.0747
8,ACGGTGTA,0.255
9,GTACCTCA,-0.00259
10,CCCCTACG,0.103
11,CCGTTCGC,-0.099
12,TATCCCAA,0.329
13,AGTAGCGC,-0.0582
14,CATAAAGG,0.0642
15,CAACTCCG,0.00865
16,GTAGTCGA,-0.194
17,CTAGATAA,0.123
18,CACCAAGC,0.00477
19,GATATAAA,0.184
20,AACCGATG,-0.0251
21,AGACATCT,-0.055
22,AGTCGCGC,-0.23

row,Sequence,binding signal [E-score]
1,CTCCAGAG,0.00688
2,GCTTGCAA,-0.0604
3,GAAAAAAA,-0.196
4,ACCTTTAG,0.0337
5,CAGTACGA,0.0572
6,AGACCGAC,0.0307
7,TTACCCAA,-0.23
8,GAATGGAC,-0.217
9,GAAGATTC,-0.234
10,CTCGTGAA,-0.0207
11,CCACATCG,-0.127
12,ACTCTACT,-0.132
13,ATTGTTCA,0.0125
14,AATGCAAG,-0.2
15,ATGTCAGG,-0.143
16,AGAGAAAC,-0.0485
17,ATAGCGGA,0.227
18,CAGGGTCA,-0.053
19,TACAGAGA,0.03
20,CCTACCTA,-0.0681
